What all share (test): split reporter; Rluc-PCA: proteins with C-terminal hRluc[F1]-HA and hRluc[F2]-FLAG co-expressed with p19 in N. benthamiana leaves for 72 h (Agrobacterium OD600 0.2 each, p19 0.05); pooled leaf discs macerated in 0.5 M NaCl, 0.1 M potassium phosphate pH 7.4, 1 mM EDTA, 0.02% BSA, protease inhibitors; 10 uM coelenterazine-h, luminescence 30 s; compared with p19 alone
For assay [1], the target named is T1, MURUS3/KATAMARI1 (MUR3) fused to hRluc fragment [F1] or [F2] (Arabidopsis thaliana) (UniProt Q7XJ98).
T1 sequence: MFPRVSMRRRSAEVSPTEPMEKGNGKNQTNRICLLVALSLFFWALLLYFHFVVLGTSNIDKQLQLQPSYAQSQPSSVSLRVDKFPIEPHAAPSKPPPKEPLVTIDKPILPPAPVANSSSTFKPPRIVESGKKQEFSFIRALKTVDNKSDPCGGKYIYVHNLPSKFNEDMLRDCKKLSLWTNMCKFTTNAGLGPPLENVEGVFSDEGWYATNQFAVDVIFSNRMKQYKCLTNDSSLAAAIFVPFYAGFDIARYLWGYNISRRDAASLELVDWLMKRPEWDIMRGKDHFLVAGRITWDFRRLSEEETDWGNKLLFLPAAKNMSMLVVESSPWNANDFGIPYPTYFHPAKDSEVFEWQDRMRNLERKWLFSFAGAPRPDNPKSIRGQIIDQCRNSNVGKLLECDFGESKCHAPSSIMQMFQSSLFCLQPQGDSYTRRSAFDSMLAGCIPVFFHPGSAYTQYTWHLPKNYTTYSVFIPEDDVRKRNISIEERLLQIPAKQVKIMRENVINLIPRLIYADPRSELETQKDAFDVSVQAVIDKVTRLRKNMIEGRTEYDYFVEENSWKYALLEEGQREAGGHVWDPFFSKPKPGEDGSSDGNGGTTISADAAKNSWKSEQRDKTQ

In assay [2] the target is T2, XXT2 fused to hRluc fragment [F1] or [F2] (Arabidopsis thaliana) (UniProt O22775).
T2 sequence: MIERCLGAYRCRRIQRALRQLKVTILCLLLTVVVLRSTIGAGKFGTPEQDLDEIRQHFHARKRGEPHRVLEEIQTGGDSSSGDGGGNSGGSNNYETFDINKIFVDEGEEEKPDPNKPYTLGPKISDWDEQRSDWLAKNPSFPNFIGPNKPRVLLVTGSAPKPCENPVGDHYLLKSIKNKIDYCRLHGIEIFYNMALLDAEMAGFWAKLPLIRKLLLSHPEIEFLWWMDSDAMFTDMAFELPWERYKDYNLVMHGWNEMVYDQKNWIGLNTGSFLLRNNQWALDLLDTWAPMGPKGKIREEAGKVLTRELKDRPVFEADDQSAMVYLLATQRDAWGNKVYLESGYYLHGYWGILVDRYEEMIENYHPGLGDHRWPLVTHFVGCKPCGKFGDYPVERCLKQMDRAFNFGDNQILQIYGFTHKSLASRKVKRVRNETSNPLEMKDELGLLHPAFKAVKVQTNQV

Assay [3] deals with T3, IRREGULAR XYLEM9 (IRX9) fused to hRluc fragment [F1] or [F2] (Arabidopsis thaliana) (UniProt Q9ZQC6).
T3 sequence: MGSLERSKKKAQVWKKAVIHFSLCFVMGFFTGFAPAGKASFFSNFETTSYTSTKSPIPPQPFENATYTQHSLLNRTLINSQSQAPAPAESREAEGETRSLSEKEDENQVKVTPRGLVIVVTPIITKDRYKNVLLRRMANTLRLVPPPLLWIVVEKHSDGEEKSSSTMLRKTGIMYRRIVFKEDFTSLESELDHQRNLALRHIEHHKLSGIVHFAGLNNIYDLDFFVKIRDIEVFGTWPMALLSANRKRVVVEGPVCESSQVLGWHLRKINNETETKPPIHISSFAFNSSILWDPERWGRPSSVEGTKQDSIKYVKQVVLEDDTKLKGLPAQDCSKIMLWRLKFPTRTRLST

Assay [4] deals with T4, IRX10 fused to hRluc fragment [F1] or [F2] (Arabidopsis thaliana) (UniProt Q9FZJ1).
T4 sequence: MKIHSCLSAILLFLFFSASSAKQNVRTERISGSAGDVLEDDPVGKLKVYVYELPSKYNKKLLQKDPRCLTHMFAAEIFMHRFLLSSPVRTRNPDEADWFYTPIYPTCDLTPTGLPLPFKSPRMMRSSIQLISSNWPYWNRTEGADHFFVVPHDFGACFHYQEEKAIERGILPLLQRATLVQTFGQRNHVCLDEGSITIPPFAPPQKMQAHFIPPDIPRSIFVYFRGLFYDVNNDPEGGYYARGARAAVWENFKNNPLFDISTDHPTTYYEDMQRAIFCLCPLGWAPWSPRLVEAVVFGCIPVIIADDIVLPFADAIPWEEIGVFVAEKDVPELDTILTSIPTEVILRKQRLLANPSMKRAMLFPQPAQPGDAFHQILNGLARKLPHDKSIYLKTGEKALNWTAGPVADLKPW

In assay [5] the target is T5, IRX14 fused to hRluc fragment [F1] or [F2] (Arabidopsis thaliana) (UniProt Q8L707).
T5 sequence: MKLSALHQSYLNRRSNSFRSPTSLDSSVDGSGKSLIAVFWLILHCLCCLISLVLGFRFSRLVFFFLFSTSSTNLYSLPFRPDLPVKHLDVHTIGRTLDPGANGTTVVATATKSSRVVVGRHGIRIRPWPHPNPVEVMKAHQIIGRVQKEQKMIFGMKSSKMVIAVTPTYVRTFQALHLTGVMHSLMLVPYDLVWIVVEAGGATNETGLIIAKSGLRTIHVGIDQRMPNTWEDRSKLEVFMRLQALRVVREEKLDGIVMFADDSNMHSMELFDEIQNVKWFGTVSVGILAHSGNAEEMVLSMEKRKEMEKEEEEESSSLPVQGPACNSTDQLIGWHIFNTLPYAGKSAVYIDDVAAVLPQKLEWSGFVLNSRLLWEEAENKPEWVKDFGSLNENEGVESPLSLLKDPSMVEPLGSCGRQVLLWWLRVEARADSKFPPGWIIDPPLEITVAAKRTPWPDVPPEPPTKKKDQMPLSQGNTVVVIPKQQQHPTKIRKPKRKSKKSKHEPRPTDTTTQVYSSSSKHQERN

The target of assay [6] is T6, IRX10-L fused to hRluc fragment [F1] or [F2] (Arabidopsis thaliana) (UniProt Q940Q8).
T6 sequence: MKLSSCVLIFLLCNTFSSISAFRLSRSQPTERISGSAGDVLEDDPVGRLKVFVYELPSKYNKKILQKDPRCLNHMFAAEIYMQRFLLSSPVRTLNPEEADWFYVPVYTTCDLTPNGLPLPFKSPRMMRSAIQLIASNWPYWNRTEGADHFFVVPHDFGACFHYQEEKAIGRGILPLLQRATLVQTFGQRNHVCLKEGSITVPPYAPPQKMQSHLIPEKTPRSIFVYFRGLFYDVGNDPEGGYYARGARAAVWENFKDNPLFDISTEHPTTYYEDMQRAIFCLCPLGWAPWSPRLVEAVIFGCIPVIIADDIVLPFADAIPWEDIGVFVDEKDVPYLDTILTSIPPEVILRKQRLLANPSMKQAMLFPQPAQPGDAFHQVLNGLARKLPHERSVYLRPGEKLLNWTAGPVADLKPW

Results are given in words; binding and its absence hold for the method and conditions named. In cells and extracts the contact can be indirect. Some binding calls cover weakened binding; strength is not graded here. Sequences can lack the tags named with a protein.

B1: XXT2 fused to hRluc fragment [F1] or [F2] (protein, UniProt O22775 1-461)
chain: MIERCLGAYRCRRIQRALRQLKVTILCLLLTVVVLRSTIGAGKFGTPEQDLDEIRQHFHARKRGEPHRVLEEIQTGGDSSSGDGGGNSGGSNNYETFDINKIFVDEGEEEKPDPNKPYTLGPKISDWDEQRSDWLAKNPSFPNFIGPNKPRVLLVTGSAPKPCENPVGDHYLLKSIKNKIDYCRLHGIEIFYNMALLDAEMAGFWAKLPLIRKLLLSHPEIEFLWWMDSDAMFTDMAFELPWERYKDYNLVMHGWNEMVYDQKNWIGLNTGSFLLRNNQWALDLLDTWAPMGPKGKIREEAGKVLTRELKDRPVFEADDQSAMVYLLATQRDAWGNKVYLESGYYLHGYWGILVDRYEEMIENYHPGLGDHRWPLVTHFVGCKPCGKFGDYPVERCLKQMDRAFNFGDNQILQIYGFTHKSLASRKVKRVRNETSNPLEMKDELGLLHPAFKAVKVQTNQV
On to B1, for which the binding entry in assay [1] is “binds”; in assay [2], “no binding”.

B2: IRREGULAR XYLEM9 (IRX9) fused to hRluc fragment [F1] or [F2] (protein, UniProt Q9ZQC6 1-351)
chain: MGSLERSKKKAQVWKKAVIHFSLCFVMGFFTGFAPAGKASFFSNFETTSYTSTKSPIPPQPFENATYTQHSLLNRTLINSQSQAPAPAESREAEGETRSLSEKEDENQVKVTPRGLVIVVTPIITKDRYKNVLLRRMANTLRLVPPPLLWIVVEKHSDGEEKSSSTMLRKTGIMYRRIVFKEDFTSLESELDHQRNLALRHIEHHKLSGIVHFAGLNNIYDLDFFVKIRDIEVFGTWPMALLSANRKRVVVEGPVCESSQVLGWHLRKINNETETKPPIHISSFAFNSSILWDPERWGRPSSVEGTKQDSIKYVKQVVLEDDTKLKGLPAQDCSKIMLWRLKFPTRTRLST
With B2, the binding result in assay [3], in assay [4], in assay [5] and in assay [6] was “no binding” in each case.

(Values after PMC4265154, “A reversible Renilla luciferase protein complementation assay for rapid identification of protein–protein interactions reveals the existence of an interaction network involved in xyloglucan biosynthesis in the plant Golgi apparatus” (Journal of Experimental Botany, 2014).)
